Results are given in words; binding and its absence hold for the method and conditions named. Binding seen in cells or lysates may run through a third protein. Some entries that bind do so weakly or less than the wild type.
T1: STRN4, endogenous (human (endogenous in HEK TER, IMR90)) (UniProt Q9NRL3)
T1 sequence: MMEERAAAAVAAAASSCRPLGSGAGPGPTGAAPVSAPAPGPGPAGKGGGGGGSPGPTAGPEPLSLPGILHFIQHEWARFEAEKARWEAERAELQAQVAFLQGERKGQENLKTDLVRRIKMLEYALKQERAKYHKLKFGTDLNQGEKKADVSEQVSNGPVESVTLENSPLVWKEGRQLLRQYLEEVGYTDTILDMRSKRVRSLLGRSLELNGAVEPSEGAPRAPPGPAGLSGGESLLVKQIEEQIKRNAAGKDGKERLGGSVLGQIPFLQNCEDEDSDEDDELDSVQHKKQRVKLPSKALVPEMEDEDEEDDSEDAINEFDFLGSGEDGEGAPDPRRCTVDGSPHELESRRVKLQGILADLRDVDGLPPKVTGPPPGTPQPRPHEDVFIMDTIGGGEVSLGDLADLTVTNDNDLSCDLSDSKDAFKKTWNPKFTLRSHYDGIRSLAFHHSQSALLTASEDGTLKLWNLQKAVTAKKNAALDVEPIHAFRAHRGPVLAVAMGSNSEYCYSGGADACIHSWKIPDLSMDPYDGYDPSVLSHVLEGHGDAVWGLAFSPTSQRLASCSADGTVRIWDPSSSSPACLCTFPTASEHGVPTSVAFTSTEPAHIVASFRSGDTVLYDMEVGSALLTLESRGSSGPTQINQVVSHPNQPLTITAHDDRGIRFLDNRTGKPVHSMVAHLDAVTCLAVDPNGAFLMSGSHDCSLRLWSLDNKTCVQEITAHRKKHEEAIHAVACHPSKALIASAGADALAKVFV

Chains of the proteins cited; added tags and fusions are not shown.
UniProt P03081: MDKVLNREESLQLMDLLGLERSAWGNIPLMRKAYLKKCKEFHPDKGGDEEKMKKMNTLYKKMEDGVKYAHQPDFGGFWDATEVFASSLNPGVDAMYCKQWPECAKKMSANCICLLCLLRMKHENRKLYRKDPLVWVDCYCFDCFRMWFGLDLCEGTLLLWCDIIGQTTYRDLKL
UniProt P03082: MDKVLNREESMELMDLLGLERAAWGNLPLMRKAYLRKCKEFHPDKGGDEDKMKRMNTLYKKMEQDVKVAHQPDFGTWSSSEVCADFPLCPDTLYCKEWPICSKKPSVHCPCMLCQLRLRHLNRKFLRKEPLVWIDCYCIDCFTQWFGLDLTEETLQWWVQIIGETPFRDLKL
UniProt P03083: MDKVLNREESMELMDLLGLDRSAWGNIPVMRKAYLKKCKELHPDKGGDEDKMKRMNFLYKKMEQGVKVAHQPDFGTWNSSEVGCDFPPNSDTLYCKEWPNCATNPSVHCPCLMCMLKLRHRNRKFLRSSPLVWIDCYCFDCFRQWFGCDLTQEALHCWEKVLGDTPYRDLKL
UniProt P30153: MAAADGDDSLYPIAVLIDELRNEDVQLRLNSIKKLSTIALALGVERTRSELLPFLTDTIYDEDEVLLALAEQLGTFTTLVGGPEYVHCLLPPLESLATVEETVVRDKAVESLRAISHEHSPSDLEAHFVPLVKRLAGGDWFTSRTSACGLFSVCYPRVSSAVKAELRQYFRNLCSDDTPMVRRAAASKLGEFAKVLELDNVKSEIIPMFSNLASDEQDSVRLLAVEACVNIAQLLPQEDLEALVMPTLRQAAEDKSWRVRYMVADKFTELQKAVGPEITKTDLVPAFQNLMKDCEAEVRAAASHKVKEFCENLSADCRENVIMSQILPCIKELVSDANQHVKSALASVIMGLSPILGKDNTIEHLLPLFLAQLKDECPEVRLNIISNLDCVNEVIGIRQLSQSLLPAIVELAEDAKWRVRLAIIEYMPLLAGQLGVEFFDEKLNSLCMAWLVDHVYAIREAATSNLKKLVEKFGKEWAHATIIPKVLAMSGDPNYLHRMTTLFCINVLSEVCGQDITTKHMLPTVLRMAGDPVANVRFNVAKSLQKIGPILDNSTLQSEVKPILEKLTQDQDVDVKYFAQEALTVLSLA
UniProt O95819: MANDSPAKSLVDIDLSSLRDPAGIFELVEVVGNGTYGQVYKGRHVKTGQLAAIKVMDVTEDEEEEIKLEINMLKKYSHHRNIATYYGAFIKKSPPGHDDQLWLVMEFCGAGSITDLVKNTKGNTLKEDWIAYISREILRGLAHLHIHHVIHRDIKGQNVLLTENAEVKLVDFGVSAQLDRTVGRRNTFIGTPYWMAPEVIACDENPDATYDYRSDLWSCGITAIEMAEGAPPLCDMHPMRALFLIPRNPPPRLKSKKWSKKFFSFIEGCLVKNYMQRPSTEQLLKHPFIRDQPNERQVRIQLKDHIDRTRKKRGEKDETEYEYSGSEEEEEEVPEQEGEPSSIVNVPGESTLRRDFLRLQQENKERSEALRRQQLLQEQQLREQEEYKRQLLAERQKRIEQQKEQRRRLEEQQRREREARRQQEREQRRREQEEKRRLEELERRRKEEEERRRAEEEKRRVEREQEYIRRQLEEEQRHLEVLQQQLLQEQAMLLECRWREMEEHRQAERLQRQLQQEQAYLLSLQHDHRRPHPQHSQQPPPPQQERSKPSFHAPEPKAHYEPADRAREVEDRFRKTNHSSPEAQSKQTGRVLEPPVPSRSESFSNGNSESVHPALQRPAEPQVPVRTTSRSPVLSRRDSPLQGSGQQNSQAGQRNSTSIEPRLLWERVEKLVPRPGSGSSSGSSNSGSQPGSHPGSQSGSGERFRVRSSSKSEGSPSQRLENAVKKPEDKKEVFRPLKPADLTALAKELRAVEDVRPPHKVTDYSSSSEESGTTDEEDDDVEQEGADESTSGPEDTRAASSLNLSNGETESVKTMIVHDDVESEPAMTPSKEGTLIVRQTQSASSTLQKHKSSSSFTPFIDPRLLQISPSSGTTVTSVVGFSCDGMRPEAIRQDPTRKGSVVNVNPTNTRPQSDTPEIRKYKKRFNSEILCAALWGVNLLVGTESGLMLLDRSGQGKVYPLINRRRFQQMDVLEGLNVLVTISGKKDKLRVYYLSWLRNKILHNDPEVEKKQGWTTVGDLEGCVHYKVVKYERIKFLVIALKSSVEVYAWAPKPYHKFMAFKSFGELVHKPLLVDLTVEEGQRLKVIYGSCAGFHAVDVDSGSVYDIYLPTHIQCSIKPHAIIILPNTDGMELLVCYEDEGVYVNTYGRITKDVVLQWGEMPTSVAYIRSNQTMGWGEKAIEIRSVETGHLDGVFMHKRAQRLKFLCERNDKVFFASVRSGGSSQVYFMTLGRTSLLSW
UniProt Q5VSL9: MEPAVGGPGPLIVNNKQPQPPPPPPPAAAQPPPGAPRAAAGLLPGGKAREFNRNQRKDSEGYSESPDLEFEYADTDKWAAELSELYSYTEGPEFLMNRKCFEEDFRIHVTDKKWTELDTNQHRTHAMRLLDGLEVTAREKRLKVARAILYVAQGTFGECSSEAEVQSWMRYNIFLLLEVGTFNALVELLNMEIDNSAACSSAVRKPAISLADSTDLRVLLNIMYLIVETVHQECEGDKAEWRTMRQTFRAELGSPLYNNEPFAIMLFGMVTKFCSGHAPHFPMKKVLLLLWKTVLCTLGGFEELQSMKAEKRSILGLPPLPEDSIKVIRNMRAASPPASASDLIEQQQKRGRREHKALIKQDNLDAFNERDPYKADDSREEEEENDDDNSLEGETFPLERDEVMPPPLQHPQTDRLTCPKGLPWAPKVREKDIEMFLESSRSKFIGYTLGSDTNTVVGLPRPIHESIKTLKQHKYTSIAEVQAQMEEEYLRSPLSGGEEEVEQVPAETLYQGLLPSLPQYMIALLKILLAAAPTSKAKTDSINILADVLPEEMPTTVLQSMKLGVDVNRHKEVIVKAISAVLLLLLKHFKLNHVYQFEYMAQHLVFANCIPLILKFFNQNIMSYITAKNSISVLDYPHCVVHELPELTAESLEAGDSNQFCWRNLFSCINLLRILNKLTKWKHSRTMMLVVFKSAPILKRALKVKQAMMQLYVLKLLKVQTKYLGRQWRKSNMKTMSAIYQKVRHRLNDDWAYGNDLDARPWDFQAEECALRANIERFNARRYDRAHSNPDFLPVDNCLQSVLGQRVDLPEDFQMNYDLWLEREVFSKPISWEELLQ
UniProt P67775: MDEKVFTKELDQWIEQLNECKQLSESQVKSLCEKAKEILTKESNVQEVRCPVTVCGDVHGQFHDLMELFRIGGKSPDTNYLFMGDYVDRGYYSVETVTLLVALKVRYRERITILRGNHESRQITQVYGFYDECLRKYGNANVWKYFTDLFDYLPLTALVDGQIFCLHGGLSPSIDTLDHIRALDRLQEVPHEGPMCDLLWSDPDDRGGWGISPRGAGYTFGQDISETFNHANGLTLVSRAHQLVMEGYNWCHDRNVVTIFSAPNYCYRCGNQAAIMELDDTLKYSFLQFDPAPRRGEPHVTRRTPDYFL

T2: STRN3, endogenous (human (endogenous in HCT116, 293T, HEK TER)) (UniProt Q13033)
T2 sequence: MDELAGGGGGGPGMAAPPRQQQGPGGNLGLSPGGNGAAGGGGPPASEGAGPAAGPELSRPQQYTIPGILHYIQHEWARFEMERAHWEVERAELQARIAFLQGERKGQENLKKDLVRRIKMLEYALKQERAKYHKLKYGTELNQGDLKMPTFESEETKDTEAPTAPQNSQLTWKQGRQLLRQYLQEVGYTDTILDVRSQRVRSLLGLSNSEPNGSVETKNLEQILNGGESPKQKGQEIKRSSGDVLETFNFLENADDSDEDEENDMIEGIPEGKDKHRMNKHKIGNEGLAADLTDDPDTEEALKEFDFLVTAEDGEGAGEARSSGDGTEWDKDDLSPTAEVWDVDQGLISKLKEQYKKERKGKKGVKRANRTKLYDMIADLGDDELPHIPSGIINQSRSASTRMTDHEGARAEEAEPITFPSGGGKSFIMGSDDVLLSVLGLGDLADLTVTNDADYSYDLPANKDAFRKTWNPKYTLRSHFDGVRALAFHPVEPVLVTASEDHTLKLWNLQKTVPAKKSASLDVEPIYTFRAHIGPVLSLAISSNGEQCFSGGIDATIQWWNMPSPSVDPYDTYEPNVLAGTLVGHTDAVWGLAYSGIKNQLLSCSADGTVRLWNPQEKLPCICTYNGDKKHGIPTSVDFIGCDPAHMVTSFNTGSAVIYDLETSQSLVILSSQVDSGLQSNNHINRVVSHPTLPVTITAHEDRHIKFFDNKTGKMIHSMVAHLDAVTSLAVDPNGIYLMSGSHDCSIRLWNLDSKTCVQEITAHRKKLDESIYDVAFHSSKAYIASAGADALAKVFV


How the values were obtained:
[1] = molecular target: SV40 Small T antigen, C-terminal Flag-HA (CTAP) tagged (SV40 (Macaca mulatta polyomavirus 1)) (UniProt P03081); test: co-IP; co-immunoprecipitation of CTAP-tagged SV40 ST wild-type and PP2A binding mutants in 293T cells; immunoblot for STRN3 and Aα
[2] = molecular target: T1, STRN4, endogenous (human (endogenous in HEK TER, IMR90)); test: co-IP; co-immunoprecipitation of endogenous STRN4, STRIP1, PP2A Cα and MAP4K4 in IMR90 cells expressing SV40 ST or GFP; immunoblot
[3] = molecular target: T2, STRN3, endogenous (human (endogenous in HCT116, 293T, HEK TER)); test: co-IP; IP of endogenous STRN3, STRN4, STRIP1 and MAP4K4 from HEK TER cells expressing ST or GFP, and from HEK TER ST cells with shSTRN4 or shLuc; beads washed with 300 mM NaCl lysis buffer; immunoblot
[4] = molecular target: T1, STRN4, endogenous (human (endogenous in HEK TER, IMR90)); test: as above
[5] = molecular target: BKPyV Small T antigen, C-terminal Flag-HA (CTAP) tagged (BK polyomavirus (BKPyV)) (UniProt P03082); test: co-IP; HA-tag immunoprecipitation from lysates of HCT116 cells expressing CTAP (C-terminal Flag-HA) tagged STs; endogenous partners detected by immunoblot
[6] = molecular target: JCPyV-Mad1 Small T antigen, C-terminal Flag-HA (CTAP) tagged (JC polyomavirus (JCPyV-Mad1)) (UniProt P03083); test: as above
[7] = molecular target: SV40 Small T antigen, C-terminal Flag-HA (CTAP) tagged (SV40 (Macaca mulatta polyomavirus 1)) (UniProt P03081); test: as above

| Molecule | binding [1] | binding [2] | binding [3] | binding [4] | binding [5] | binding [6] | binding [7] |
| --- | --- | --- | --- | --- | --- | --- | --- |
| PP2A Aα subunit, endogenous (from UniProt P30153 1-589) | binds | – | – | – | – | – | – |
| mitogen-activated protein kinase kinase kinase kinase 4 (MAP4K4), endogenous (from UniProt O95819 1-1239) | – | binds | binds | binds | no binding | no binding | binds |
| STRIP1, endogenous (from UniProt Q5VSL9 1-837) | – | – | – | – | binds | binds | binds |
| PP2A C (catalytic) subunit, endogenous (from UniProt P67775 1-309) | – | binds | – | binds | binds | binds | binds |
| STRN3, endogenous (protein, UniProt Q13033 1-797) MDELAGGGGGGPGMAAPPRQQQGPGGNLGLSPGGNGAAGGGGPPASEGAGPAAGPELSRPQQYTIPGILHYIQHEWARFEMERAHWEVERAELQARIAFLQGERKGQENLKKDLVRRIKMLEYALKQERAKYHKLKYGTELNQGDLKMPTFESEETKDTEAPTAPQNSQLTWKQGRQLLRQYLQEVGYTDTILDVRSQRVRSLLGLSNSEPNGSVETKNLEQILNGGESPKQKGQEIKRSSGDVLETFNFLENADDSDEDEENDMIEGIPEGKDKHRMNKHKIGNEGLAADLTDDPDTEEALKEFDFLVTAEDGEGAGEARSSGDGTEWDKDDLSPTAEVWDVDQGLISKLKEQYKKERKGKKGVKRANRTKLYDMIADLGDDELPHIPSGIINQSRSASTRMTDHEGARAEEAEPITFPSGGGKSFIMGSDDVLLSVLGLGDLADLTVTNDADYSYDLPANKDAFRKTWNPKYTLRSHFDGVRALAFHPVEPVLVTASEDHTLKLWNLQKTVPAKKSASLDVEPIYTFRAHIGPVLSLAISSNGEQCFSGGIDATIQWWNMPSPSVDPYDTYEPNVLAGTLVGHTDAVWGLAYSGIKNQLLSCSADGTVRLWNPQEKLPCICTYNGDKKHGIPTSVDFIGCDPAHMVTSFNTGSAVIYDLETSQSLVILSSQVDSGLQSNNHINRVVSHPTLPVTITAHEDRHIKFFDNKTGKMIHSMVAHLDAVTSLAVDPNGIYLMSGSHDCSIRLWNLDSKTCVQEITAHRKKLDESIYDVAFHSSKAYIASAGADALAKVFV | – | – | – | – | binds | binds | – |
